The values that follow come from patent US20260216360A1, “TYROSINASE-MEDIATED PROTEIN SITE-SPECIFIC CONJUGATION AND USE THEREOF” (SHANGHAI SHENGDI PHARMACEUTICAL CO., LTD., priority 2023, published 2026).

The data set concerns VsTYR core. The experiment in a line: Tyrosinase-mediated one-pot conjugation of antibodies, VsTYR core (RP-HPLC, LC-MS DAR). It counts as biochemical, Verrucomicrobium spinosum. How it is done:
After an additional tyrosine is introduced into the antibody by mutation, tyrosinase can recognize it and oxidize it to quinone. The small molecule in the reaction system rapidly undergoes a 4+2 Diels Alder reaction with the quinone through a linker, thereby forming an antibody conjugate.
Specific reaction conditions: The antibody concentration was controlled to be about 2.5 mg/mL. […] The small molecule was dissolved in DMSO, and the final concentration of DMSO was controlled to be not greater than 10%. After pre-cooling on ice, tyrosinase (final concentration: 1 mg/mL) was added. The reaction pH was controlled to be about 5.5. The reaction was performed at 4° C. for 16 h. The final reaction mixture was stored at −40° C. for later analysis.
RP-HPLC analysis was performed on the conjugate sample using conventional high performance liquid chromatography to determine how the HC/LC containing the corresponding mutation site(s) reacted. […] Ultraviolet absorption was measured at 280 nm.
The reaction mixture of conjugation was diluted to 1 mg/mL, and formic acid (final concentration: 0.1%) was added to enhance the protonation of the sample. The sample was analyzed using a ThermoFisher QE plus mass spectrometer. […] After the sampling was completed, mass spectrometry data of the target peak were calculated using BioPharma Finder software. […]

B1: c-met L15 (antibody)
heavy: QVQLVESGGGVVQPGRSLRLSCAASGFSLSNYGVHWVRQAPGKGLEWLAVIWSGGSTNYAAAFVSRLTISKDNSKNTVYLQMNSLRAEDTAVYYCARNHDNPYNYAMDYWGQGTTVTVSS[no letters for human IgG1 constant region]
light: DIVLTQSPDSLAVSLGERATINCRADKSVSTSTYNYLHWYQQKPGQPPKLLIYLASNLASGVPDRFSGSGSGTDFTLTISSLQAEDVAVYYCQHSRDLPPTFGQGTKLEIKRTVAAPSVFIFPPSDEQLKSGTASVVCLLNNFYPREAKVQWKVDNALQSGNSQESVTEQDSKDSTYSLSSTLTLSKADYEKHKVYACEVTHQGLYSPVTKSFNRGEC
modifications: c-met L15 HC; c-met L15 LC
Consider B1, for which the “DAR value (calculated by MS)” value (VsTYR core, polypeptide P-1) is listed as 2.00.

B2: 0102 L15: 0102 mutant S202Y in Cκ, HC SEQ ID NO: 12, LC SEQ ID NO: 20 (antibody)
heavy: EVQLVESGGGLVKPGGSLRLSCAASGFTFSTYAMSWVRQAPEKRLEWVATISDSDYYADNVKGRFTISRDNAKNSLYLQMNSLRAEDTAVYYCVRDDWDGDFDYWGQGTLVTVSS[no letters for human IgG1 constant region]
light: DVVMTQSPLSLPVTPGEPASISCKSTQSLLYSDGETYLNWLLQKPGQSPQRLIYLVSKLDSGVPDRFSGSGSGTDFTLKISRVEAEDVGVYYCWQGSHFPQTFGGGTKVEIKRTVAAPSVFIFPPSDEQLKSGTASVVCLLNNFYPREAKVQWKVDNALQSGNSQESVTEQDSKDSTYSLSSTLTLSKADYEKHKVYACEVTHQGLYSPVTKSFNRGEC
modifications: 0102 wt HC; 0102 L15 LC
Regarding B2, the “DAR value (calculated by MS)” value (enzyme VsTYR core, compound L-2, calculated DAR for single-point mutants is 2) was 2.00.
